Residue numbers refer to the chain shown, from its start. Some of the results follow.

To fix the notation:
B1: CCCGGAG (DNA:RNA)
RNA: GGGAGACCGGAAUUCAGAUUGUCCCCCGGAGUUAAAUCCCGUCGUAGCCACCA
DNA 1: CAATCTGAATTCCGGTCTCCC
DNA 2: TGGTGGCTACGACGGGATT
B2: GGGUUCU (DNA:RNA)
RNA: GGGAGACCGGAAUUCAGAUUGUCCGGGUUCUUUAAAUCCCGUCGUAGCCACCA
DNA 1: CAATCTGAATTCCGGTCTCCC
DNA 2: TGGTGGCTACGACGGGATT
B3: CUAAGAC (DNA:RNA)
RNA: B1 RNA with C26U, C27A, G28A, G31C
DNA 1: CAATCTGAATTCCGGTCTCCC
DNA 2: TGGTGGCTACGACGGGATT
B4: AUUCUCU (DNA:RNA)
RNA: B2 RNA with G25A, G26U, G27U, U28C
DNA 1: CAATCTGAATTCCGGTCTCCC
DNA 2: TGGTGGCTACGACGGGATT
B5: UUAAUGA (DNA:RNA)
RNA: B2 RNA with G25U, G26U, G27A, U28A, C30G, U31A
DNA 1: CAATCTGAATTCCGGTCTCCC
DNA 2: TGGTGGCTACGACGGGATT
B6: AGGGUGA (DNA:RNA)
RNA: B2 RNA with G25A, U28G, C30G, U31A
DNA 1: CAATCTGAATTCCGGTCTCCC
DNA 2: TGGTGGCTACGACGGGATT
B7: GACAUCG (DNA:RNA)
RNA: B2 RNA with G26A, G27C, U28A, U31G
DNA 1: CAATCTGAATTCCGGTCTCCC
DNA 2: TGGTGGCTACGACGGGATT
B8: UAAGCCA (DNA:RNA)
RNA: B1 RNA with C25U, C26A, C27A, G29C, A30C, G31A
DNA 1: CAATCTGAATTCCGGTCTCCC
DNA 2: TGGTGGCTACGACGGGATT
B9: UAAUCCA (DNA:RNA)
RNA: B2 RNA with G25U, G26A, G27A, U29C, U31A
DNA 1: CAATCTGAATTCCGGTCTCCC
DNA 2: TGGTGGCTACGACGGGATT
B10: AGGUCGC (DNA:RNA)
RNA: B2 RNA with G25A, U29C, C30G, U31C
DNA 1: CAATCTGAATTCCGGTCTCCC
DNA 2: TGGTGGCTACGACGGGATT
B11: AUAUUAG (DNA:RNA)
RNA: B1 RNA with C25A, C26U, C27A, G28U, G29U
DNA 1: CAATCTGAATTCCGGTCTCCC
DNA 2: TGGTGGCTACGACGGGATT
B12: CUCACGC (DNA:RNA)
RNA: B1 RNA with C26U, G28A, G29C, A30G, G31C
DNA 1: CAATCTGAATTCCGGTCTCCC
DNA 2: TGGTGGCTACGACGGGATT
B13: GUAGAUU (DNA:RNA)
RNA: B2 RNA with G26U, G27A, U28G, U29A, C30U
DNA 1: CAATCTGAATTCCGGTCTCCC
DNA 2: TGGTGGCTACGACGGGATT
B14: AGAUACA (DNA:RNA)
RNA: B2 RNA with G25A, G27A, U29A, U31A
DNA 1: CAATCTGAATTCCGGTCTCCC
DNA 2: TGGTGGCTACGACGGGATT
B15: CAUUGAU (DNA:RNA)
RNA: B1 RNA with C26A, C27U, G28U, G31U
DNA 1: CAATCTGAATTCCGGTCTCCC
DNA 2: TGGTGGCTACGACGGGATT
B16: GCAACGC (DNA:RNA)
RNA: B1 RNA with C25G, C27A, G28A, G29C, A30G, G31C
DNA 1: CAATCTGAATTCCGGTCTCCC
DNA 2: TGGTGGCTACGACGGGATT
B17: CGGCUUU (DNA:RNA)
RNA: B2 RNA with G25C, U28C, C30U
DNA 1: CAATCTGAATTCCGGTCTCCC
DNA 2: TGGTGGCTACGACGGGATT
B18: GACAAAA (DNA:RNA)
RNA: B1 RNA with C25G, C26A, G28A, G29A, G31A
DNA 1: CAATCTGAATTCCGGTCTCCC
DNA 2: TGGTGGCTACGACGGGATT
B19: GAAGCUC (DNA:RNA)
RNA: B1 RNA with C25G, C26A, C27A, G29C, A30U, G31C
DNA 1: CAATCTGAATTCCGGTCTCCC
DNA 2: TGGTGGCTACGACGGGATT
B20: CAUAACU (DNA:RNA)
RNA: B2 RNA with G25C, G26A, G27U, U28A, U29A
DNA 1: CAATCTGAATTCCGGTCTCCC
DNA 2: TGGTGGCTACGACGGGATT
B21: GGAUAAC (DNA:RNA)
RNA: B2 RNA with G27A, U29A, C30A, U31C
DNA 1: CAATCTGAATTCCGGTCTCCC
DNA 2: TGGTGGCTACGACGGGATT
B22: AGUUACU (DNA:RNA)
RNA: B2 RNA with G25A, G27U, U29A
DNA 1: CAATCTGAATTCCGGTCTCCC
DNA 2: TGGTGGCTACGACGGGATT
B23: CCCGGGA (DNA:RNA)
RNA: B1 RNA with A30G, G31A
DNA 1: CAATCTGAATTCCGGTCTCCC
DNA 2: TGGTGGCTACGACGGGATT
B24: UACCUUA (DNA:RNA)
RNA: B1 RNA with C25U, C26A, G28C, G29U, A30U, G31A
DNA 1: CAATCTGAATTCCGGTCTCCC
DNA 2: TGGTGGCTACGACGGGATT
B25: CACGCCC (DNA:RNA)
RNA: B1 RNA with C26A, G29C, A30C, G31C
DNA 1: CAATCTGAATTCCGGTCTCCC
DNA 2: TGGTGGCTACGACGGGATT
B26: AGGCGAA (DNA:RNA)
RNA: B1 RNA with C25A, C26G, C27G, G28C, G31A
DNA 1: CAATCTGAATTCCGGTCTCCC
DNA 2: TGGTGGCTACGACGGGATT
B27: CCAAUGG (DNA:RNA)
RNA: B1 RNA with C27A, G28A, G29U, A30G
DNA 1: CAATCTGAATTCCGGTCTCCC
DNA 2: TGGTGGCTACGACGGGATT
B28: CGAACAC (DNA:RNA)
RNA: B1 RNA with C26G, C27A, G28A, G29C, G31C
DNA 1: CAATCTGAATTCCGGTCTCCC
DNA 2: TGGTGGCTACGACGGGATT
B29: UACCGCG (DNA:RNA)
RNA: B1 RNA with C25U, C26A, G28C, A30C
DNA 1: CAATCTGAATTCCGGTCTCCC
DNA 2: TGGTGGCTACGACGGGATT
B30: AAAGGUU (DNA:RNA)
RNA: B1 RNA with C25A, C26A, C27A, A30U, G31U
DNA 1: CAATCTGAATTCCGGTCTCCC
DNA 2: TGGTGGCTACGACGGGATT
B31: GUGCCUA (DNA:RNA)
RNA: B2 RNA with G26U, U28C, U29C, C30U, U31A
DNA 1: CAATCTGAATTCCGGTCTCCC
DNA 2: TGGTGGCTACGACGGGATT

The test addresses T1, RBFOX1 RRM RbFoxmut (Fox-RRM*) (Homo sapiens, UniProt Q9NWB1 109-208, R118D;E147R;N151S;E152T).
T1 sequence: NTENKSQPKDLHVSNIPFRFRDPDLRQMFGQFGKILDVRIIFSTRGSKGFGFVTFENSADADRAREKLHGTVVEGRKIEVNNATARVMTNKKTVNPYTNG
Description: EMSA; HiTS-Eq, 1 nM pool, 10 min; buffer printed only for the single-RNA assays: 10 mM Tris pH 7.5, 150 mM NaCl, 3.4 mM EDTA, 0.001% NP-40, 30 C. The note with it: tags: His6 N-terminal (pET28a); label: 5' 32P. The essentials:
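Purified RbFox RRM (wild type or mutant) was equilibrated for 10 min in 50 µL with 1 nM of a 5′-radiolabelled pool of RNA with 7 randomized nucleotides, its flanks annealed to DNA oligonucleotides, across increasing protein concentrations. Free RNA was separated by 8% native PAGE, excised, reverse-transcribed, PCR-barcoded and sequenced on an Illumina HiSeq 2500. Relative association constants came from read-count changes of each variant against the control reaction, normalised to the cognate motif.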
On the technique in general: A gel shift assay detects complexes by their altered migration in electrophoresis.
For B1, the binding signal is 0.0933 KA relative to UGCAUGU.

With B2, the binding signal was 0.14 KA relative to UGCAUGU.

With B3, the binding signal was 0.0687 KA relative to UGCAUGU.

As to B4, the binding signal was 0.0957 KA relative to UGCAUGU.

Turning to B5, the binding signal was 0.0717 KA relative to UGCAUGU.

In the case of B6, the binding signal was 0.124 KA relative to UGCAUGU.

In the case of B7, the binding signal is 0.0779 KA relative to UGCAUGU.

For the molecule B8, the binding signal is 0.0999 KA relative to UGCAUGU.

B9: the binding signal is 0.0724 KA relative to UGCAUGU.

As for B10, the binding signal was 0.0824 KA relative to UGCAUGU.

On to B11, for which the binding signal was 0.127 KA relative to UGCAUGU.

B12: the binding signal was 0.0906 KA relative to UGCAUGU.

On to B13, for which the binding signal is 0.138 KA relative to UGCAUGU.

Turning to B14, the binding signal was 0.0889 KA relative to UGCAUGU.

With B15, the binding signal is 0.126 KA relative to UGCAUGU.

On to B16, for which the binding signal was 0.0568 KA relative to UGCAUGU.

As to B17, the binding signal is 0.0746 KA relative to UGCAUGU.

As to B18, the binding signal is 0.057 KA relative to UGCAUGU.

As to B19, the binding signal is 0.0484 KA relative to UGCAUGU.

As for B20, the binding signal is 0.0993 KA relative to UGCAUGU.

B21: the binding signal is 0.0671 KA relative to UGCAUGU.

Turning to B22, the binding signal is 0.0898 KA relative to UGCAUGU.

For the molecule B23, the binding signal is 0.0476 KA relative to UGCAUGU.

With B24, the binding signal is 0.163 KA relative to UGCAUGU.

As to B25, the binding signal was 0.0943 KA relative to UGCAUGU.

Regarding B26, the binding signal was 0.0877 KA relative to UGCAUGU.

With B27, the binding signal was 0.0834 KA relative to UGCAUGU.

Regarding B28, the binding signal was 0.075 KA relative to UGCAUGU.

In the case of B29, the binding signal is 0.083 KA relative to UGCAUGU.

With B30, the binding signal is 0.0771 KA relative to UGCAUGU.

For the molecule B31, the binding signal is 0.108 KA relative to UGCAUGU.

The values above are taken from PMC9911399, “Two distinct binding modes provide the RNA-binding protein RbFox with extraordinary sequence specificity”.
